Measurements taken from the supplement of paper PMC8728848.
Some of the results follow.

Legend:
Assay in all cases: glycan array binding signal (z-score within array); higher = stronger binding
Settings in all cases: glycan notation: IUPAC condensed, linker removed
Gal(b1-3)GalNAc = target: Gal(b1-3)GalNAc
Method in brief: (§1)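 Columns mapping to the same glycan were averaged after glycan names were converted to IUPAC-condensed notation. The data come from 3228 arrays in the Consortium for Functional Glycomics database, limited to those with an available protein sequence. Binding is reported as a within-array Z-score averaged across arrays of one protein sequence and across linkers.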

[1] = target: Gal(b1-3)GalNAc(b1-3)Gal(a1-4)Gal(b1-4)Glc
Method in brief: as §1

[2] = target: Gal(b1-3)GalNAc(b1-3)Gal(b1-4)Glc
Method in brief: as §1

[3] = target: Gal(b1-3)GalNAc(b1-3)Gal(b1-4)GlcNAc
Method in brief: as §1

[4] = target: Gal(b1-3)GalNAc(b1-4)Gal(b1-4)Glc
Method in brief: as §1

[5] = target: Gal(b1-3)GalNAc(b1-4)[Neu5Ac(a2-3)]Gal(b1-4)Glc
Method in brief: as §1

[6] = target: Gal(b1-3)GlcNAc(b1-3)Gal(b1-3)GlcNAc
Method in brief: as §1

[7] = target: Gal(b1-3)[Fuc(a1-4)]GlcNAc
Method in brief: as §1

[8] = target: Gal(b1-3)[Fuc(a1-4)]GlcNAc(b1-3)Gal(b1-3)[Fuc(a1-4)]GlcNAc
Method in brief: as §1

[9] = target: Gal(b1-3)[Fuc(a1-4)]GlcNAc(b1-3)Gal(b1-4)GlcNAc
Method in brief: as §1

[10] = target: Gal(b1-3)[Fuc(a1-4)]GlcNAc(b1-3)Gal(b1-4)[Fuc(a1-3)]GlcNAc
Method in brief: as §1

[11] = target: Gal(b1-3)[GlcNAc(b1-6)]GalNAc
Method in brief: as §1

[12] = target: Gal(b1-3)[GlcNAc(b1-6)]GlcNAc
Method in brief: as §1

[13] = target: Gal(b1-3)[Neu5Ac(a2-6)]GalNAc
Method in brief: as §1

[14] = target: Gal(b1-3)[Neu5Ac(a2-6)]GlcNAc
Method in brief: as §1

[15] = target: Gal(b1-3)[Neu5Ac(a2-6)]GlcNAc(a1-4)Gal(b1-4)Glc
Method in brief: as §1

[16] = target: Gal(b1-3)[Neu5Ac(b2-6)]GlcNAc
Method in brief: as §1

[17] = target: Gal(b1-4)GalNAc(a1-3)[Fuc(a1-2)]Gal(b1-4)GlcNAc
Method in brief: as §1

[18] = target: Gal(b1-4)GalNAc(b1-3)[Fuc(a1-2)]Gal(b1-4)GlcNAc
Method in brief: as §1

Gal(b1-4)Glc = target: Gal(b1-4)Glc
Method in brief: as §1

Gal(b1-4)Glc6S = target: Gal(b1-4)Glc6S
Method in brief: as §1

Gal(b1-4)GlcNAc = target: Gal(b1-4)GlcNAc
Method in brief: as §1

[19] = target: Gal(b1-4)GlcNAc(b1-2)Man(a1-3)[Gal(b1-4)GlcNAc(b1-2)Man(a1-6)]Man(b1-4)GlcNAc(b1-4)GlcNAc
Method in brief: as §1

[20] = target: Gal(b1-4)GlcNAc(b1-3)Gal(b1-3)GlcNAc
Method in brief: as §1

[21] = target: Gal(b1-4)GlcNAc(b1-3)Gal(b1-4)Glc
Method in brief: as §1

[22] = target: Gal(b1-4)GlcNAc(b1-3)Gal(b1-4)GlcNAc
Method in brief: as §1

[23] = target: Gal(b1-4)GlcNAc(b1-3)Gal(b1-4)GlcNAc(b1-3)Gal(b1-4)GlcNAc
Method in brief: as §1

[24] = target: Gal(b1-4)GlcNAc(b1-3)Gal(b1-4)[Fuc(a1-3)]GlcNAc(b1-3)Gal(b1-4)[Fuc(a1-3)]GlcNAc
Method in brief: as §1

[25] = target: Gal(b1-4)GlcNAc(b1-3)GalNAc
Method in brief: as §1

[26] = target: Gal(b1-4)GlcNAc(b1-3)[Gal(b1-4)GlcNAc(b1-6)]GalNAc
Method in brief: as §1

[27] = target: Gal(b1-4)GlcNAc(b1-6)GalNAc
Method in brief: as §1

[28] = target: Gal(b1-4)GlcNAc(b1-6)[Gal(b1-3)]GalNAc
Method in brief: as §1

[29] = target: Gal(b1-4)GlcNAc(b1-6)[Gal(b1-3)]GlcNAc
Method in brief: as §1

Gal3S(b1-3)GalNAc = target: Gal3S(b1-3)GalNAc
Method in brief: as §1

Gal3S(b1-3)GlcNAc = target: Gal3S(b1-3)GlcNAc
Method in brief: as §1

[30] = target: Gal3S(b1-3)[Fuc(a1-4)]GlcNAc
Method in brief: as §1

Gal3S(b1-4)Glc = target: Gal3S(b1-4)Glc
Method in brief: as §1

Gal3S(b1-4)Glc6S = target: Gal3S(b1-4)Glc6S
Method in brief: as §1

Gal3S(b1-4)GlcNAc = target: Gal3S(b1-4)GlcNAc
Method in brief: as §1

Gal3S(b1-4)GlcNAc6S = target: Gal3S(b1-4)GlcNAc6S
Method in brief: as §1

Gal3S6S(b1-4)GlcNAc = target: Gal3S6S(b1-4)GlcNAc
Method in brief: as §1

Gal3S6S(b1-4)GlcNAc6S = target: Gal3S6S(b1-4)GlcNAc6S
Method in brief: as §1

Gal4S(b1-4)GlcNAc = target: Gal4S(b1-4)GlcNAc
Method in brief: as §1

Gal4S6S(b1-4)GlcNAc = target: Gal4S6S(b1-4)GlcNAc
Method in brief: as §1

Gal6S(b1-4)Glc = target: Gal6S(b1-4)Glc
Method in brief: as §1

Gal6S(b1-4)Glc6S = target: Gal6S(b1-4)Glc6S
Method in brief: as §1

Gal6S(b1-4)GlcNAc = target: Gal6S(b1-4)GlcNAc
Method in brief: as §1

GalNAc(a1-3)Gal = target: GalNAc(a1-3)Gal
Method in brief: as §1

GalNAc(a1-3)GalNAc = target: GalNAc(a1-3)GalNAc
Method in brief: as §1

[31] = target: GalNAc(b1-3)Gal(a1-4)Gal(b1-4)GlcNAc
Method in brief: as §1

GalNAc(b1-4)GlcNAc = target: GalNAc(b1-4)GlcNAc
Method in brief: as §1

Glc(a1-4)Glc = target: Glc(a1-4)Glc
Method in brief: as §1

Glc(a1-6)Glc(a1-6)Glc = target: Glc(a1-6)Glc(a1-6)Glc
Method in brief: as §1

Glc(b1-4)Glc = target: Glc(b1-4)Glc
Method in brief: as §1

Glc(b1-6)Glc = target: Glc(b1-6)Glc
Method in brief: as §1

GlcA(b1-3)Gal = target: GlcA(b1-3)Gal
Method in brief: as §1

GlcA(b1-6)Gal = target: GlcA(b1-6)Gal
Method in brief: as §1

[32] = target: GlcNAc(a1-3)Gal(b1-4)GlcNAc
Method in brief: as §1

[33] = target: GlcNAc(a1-6)Gal(b1-4)GlcNAc
Method in brief: as §1

[34] = target: GlcNAc(b1-2)Gal(b1-3)GlcNAc
Method in brief: as §1

B1: DC SIGN CRD (Homo sapiens), Q9NNX6 (protein)
chain: QPCPWEWTFFQGNCYFMSNSQRNWHDSITACKEVGAQLVVIKSAEEQNFLQLQSSRSNRFTWMGLSDLNQEGTWQWVDGSPLLPSFKQYWNRGEPNNVGEEDCAEFSGNGWNDDKCNLAKFWICKKSAWSHPQFEK
In the case of B1, the “glycan array binding signal (z-score)” value (Gal(b1-3)GalNAc) is reported as -0.358, the “glycan array binding signal (z-score)” value [1] is reported as -0.334 and the “glycan array binding signal (z-score)” value [2] is reported as -0.091. For the same binder, the “glycan array binding signal (z-score)” value [3] was -0.378, the “glycan array binding signal (z-score)” value [4] was -0.385 and the “glycan array binding signal (z-score)” value [5] was -0.363. The “glycan array binding signal (z-score)” value [6] was -0.388, the “glycan array binding signal (z-score)” value [7] was 1.6 and the “glycan array binding signal (z-score)” value [8] was 1.08. The “glycan array binding signal (z-score)” value [9] was 0.259, the “glycan array binding signal (z-score)” value [10] was 1.3 and the “glycan array binding signal (z-score)” value [11] was -0.35. For the same binder, the “glycan array binding signal (z-score)” value [12] was -0.386, the “glycan array binding signal (z-score)” value [13] was -0.369 and the “glycan array binding signal (z-score)” value [14] was -0.387. For the same binder, the “glycan array binding signal (z-score)” value [15] was -0.385, the “glycan array binding signal (z-score)” value [16] was -0.355 and the “glycan array binding signal (z-score)” value [17] was -0.381. The “glycan array binding signal (z-score)” value [18] was -0.358, the “glycan array binding signal (z-score)” value (Gal(b1-4)Glc) was -0.391 and the “glycan array binding signal (z-score)” value (Gal(b1-4)Glc6S) was -0.032. For the same binder, the “glycan array binding signal (z-score)” value (Gal(b1-4)GlcNAc) was -0.382, the “glycan array binding signal (z-score)” value [19] was -0.394 and the “glycan array binding signal (z-score)” value [20] was -0.358. For the same binder, the “glycan array binding signal (z-score)” value [21] was -0.393, the “glycan array binding signal (z-score)” value [22] was -0.395 and the “glycan array binding signal (z-score)” value [23] was -0.401. For the same binder, the “glycan array binding signal (z-score)” value [24] was 0.041, the “glycan array binding signal (z-score)” value [25] was -0.398 and the “glycan array binding signal (z-score)” value [26] was -0.376. For the same binder, the “glycan array binding signal (z-score)” value [27] was -0.391, the “glycan array binding signal (z-score)” value [28] was -0.395 and the “glycan array binding signal (z-score)” value [29] was -0.395. The “glycan array binding signal (z-score)” value (Gal3S(b1-3)GalNAc) was -0.399, the “glycan array binding signal (z-score)” value (Gal3S(b1-3)GlcNAc) was -0.378 and the “glycan array binding signal (z-score)” value [30] was 1.42. For the same binder, the “glycan array binding signal (z-score)” value (Gal3S(b1-4)Glc) was 0.003, the “glycan array binding signal (z-score)” value (Gal3S(b1-4)Glc6S) was -0.083 and the “glycan array binding signal (z-score)” value (Gal3S(b1-4)GlcNAc) was -0.388. The “glycan array binding signal (z-score)” value (Gal3S(b1-4)GlcNAc6S) was 0.091, the “glycan array binding signal (z-score)” value (Gal3S6S(b1-4)GlcNAc) was -0.35 and the “glycan array binding signal (z-score)” value (Gal3S6S(b1-4)GlcNAc6S) was -0.14. For the same binder, the “glycan array binding signal (z-score)” value (Gal4S(b1-4)GlcNAc) was -0.361, the “glycan array binding signal (z-score)” value (Gal4S6S(b1-4)GlcNAc) was -0.397 and the “glycan array binding signal (z-score)” value (Gal6S(b1-4)Glc) was -0.387. The “glycan array binding signal (z-score)” value (Gal6S(b1-4)Glc6S) was -0.268, the “glycan array binding signal (z-score)” value (Gal6S(b1-4)GlcNAc) was -0.39 and the “glycan array binding signal (z-score)” value (GalNAc(a1-3)Gal) was -0.373. The “glycan array binding signal (z-score)” value (GalNAc(a1-3)GalNAc) was -0.293, the “glycan array binding signal (z-score)” value [31] was -0.289 and the “glycan array binding signal (z-score)” value (GalNAc(b1-4)GlcNAc) was -0.367. For the same binder, the “glycan array binding signal (z-score)” value (Glc(a1-4)Glc) was -0.391, the “glycan array binding signal (z-score)” value (Glc(a1-6)Glc(a1-6)Glc) was -0.4 and the “glycan array binding signal (z-score)” value (Glc(b1-4)Glc) was -0.38. The “glycan array binding signal (z-score)” value (Glc(b1-6)Glc) was -0.396, the “glycan array binding signal (z-score)” value (GlcA(b1-3)Gal) was -0.383 and the “glycan array binding signal (z-score)” value (GlcA(b1-6)Gal) was -0.392. For the same binder, the “glycan array binding signal (z-score)” value [32] was -0.29, the “glycan array binding signal (z-score)” value [33] was -0.397 and the “glycan array binding signal (z-score)” value [34] was -0.382.
